Assay results taken from the supplement of paper PMC12645437, “Orthogonal IMiD-Degron Pairs Induce Selective Protein Degradation in Cells” (ACS Chemical Biology, 2025).
The other results are listed elsewhere or left out.

Each sequence was assayed against no compound (DMSO) (assay: log2 fold change of degron read counts, EGFP-low vs EGFP+ sorted cells; higher = lower degron-EGFP level without compound (poor expression or instability)). Conditions: compound: DMSO control; 18 h.
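Note: jurkat cells carrying a lentiviral library of mutant zinc finger degrons fused to EGFP plus mCherry, mCherry+ cells FACS sorted, degron abundance counted by next-generation sequencing.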

| Sequence | log2 fold change of degron read counts |
| --- | --- |
| FDCNICGAYFTQKGNLLRHIKL | 0.995 |
| LRCPICGFSCTQKGNLLRHIKL | 0.587 |
| FSCDICGAGFTQKGNLLRHIKL | -0.966 |
| FLCNQCGHPFTQKGNLLRHIKL | 0.597 |
| LACPICGFVCTQKGNLLRHIKL | 1.04 |
| FMCEICGAFFTQKGNLLRHIKL | -0.888 |
| FVCPICGASFTQKGNLLRHIKL | -0.367 |
| FQCDQCGACFTQKGNLLRHIKL | -2.34 |
| FQCSVCGHIFTQKGNLLRHIKL | 0.436 |
| FICEICGHTFTQKGNLLRHIKL | -2.15 |
| FMCDQCGACFTQKGNLLRHIKL | -0.723 |
| FRCEICGRDFTQKGNLLRHIKL | -0.973 |
| FRCNQCGAAFTQKGNLLRHIKL | -0.418 |
| FMCDQCGAKFTQKGNLLRHIKL | -1.32 |
| FCCEQCGATFTQKGNLLRHIKL | -2.06 |
| FWCDICGADFTQKGNLLRHIKL | -1.12 |
| FNCDVCGAMFTQKGNLLRHIKL | -1.05 |
| FECDVCGAKFTQKGNLLRHIKL | -2.03 |
| FLCNQCGHAFTQKGNLLRHIKL | -1.18 |
| FGCDQCGANFTQKGNLLRHIKL | -1.3 |
| FACPQCGAHFTQKGNLLRHIKL | -0.171 |
| FGCEICGACFTQKGNLLRHIKL | -0.642 |
| FGCDICGAAFTQKGNLLRHIKL | -0.161 |
| FKCPICGAPFTQKGNLLRHIKL | 0.231 |
| FTCNVCGAKFTQKGNLLRHIKL | -0.772 |

| Sequence | log2 fold change of degron read counts |
| --- | --- |
| FACNICGAQFTQKGNLLRHIKL | -0.834 |
| FHCPVCGADFTQKGNLLRHIKL | -0.709 |
| FCCPVCGAGFTQKGNLLRHIKL | 0.309 |
| FFCEQCGAFFTQKGNLLRHIKL | 0.437 |
| FGCEVCGAHFTQKGNLLRHIKL | -1.33 |
| FACDICGAQFTQKGNLLRHIKL | -1.37 |
| FMCEICGHQFTQKGNLLRHIKL | -1.42 |
| LDCPICGFTCTQKGNLLRHIKL | 0.429 |
| FNCEQCGAIFTQKGNLLRHIKL | -1.6 |
| LCCPICGFCCTQKGNLLRHIKL | 0.866 |
| FYCDQCGAQFTQKGNLLRHIKL | -1.13 |
| FCCEICGREFTQKGNLLRHIKL | -2.84 |
| FGCNQCGAHFTQKGNLLRHIKL | 0.0462 |
| LICPICGFNCTQKGNLLRHIKL | 0.824 |
| FNCDQCGATFTQKGNLLRHIKL | -2.74 |
| FWCPQCGAAFTQKGNLLRHIKL | 0.77 |
| LRCNQCGFYCTQKGNLLRHIKL | 1.31 |
| FSCEICGAHFTQKGNLLRHIKL | -1.87 |
| FHCEQCGAMFTQKGNLLRHIKL | -1.37 |
| FSCPICGACFTQKGNLLRHIKL | -0.111 |
| FYCNICGAFFTQKGNLLRHIKL | 1.13 |
| FSCPICGRGFTQKGNLLRHIKL | -0.805 |
| FYCPICGHQFTQKGNLLRHIKL | 0.0994 |
| FRCPICGAIFTQKGNLLRHIKL | 0.0815 |
| FKCNVCGAWFTQKGNLLRHIKL | -0.212 |
